The campaign covered roughly 220,000 compounds. About 16,000 (7.3%) were called active. This list was built around the results that the source calls inconclusive (neither active nor inactive); the mix of calls is not that of the screen. Calls follow the shape of the dose curve; as a rule, active = well fitted inhibition curve with a large enough effect (not every such curve was filed as active); inconclusive = small, poorly fitted or top-dose-only effect, or another doubt; inactive = no such curve, though single readings can be large or run the other way. A potency beside an inconclusive call is a rough fit, not a confirmed value.
Molecular target: Aldehyde dehydrogenase 1A1 (Homo sapiens) (UniProt P00352)
Sequence of UniProt P00352 (P00352 whole entry, looked up): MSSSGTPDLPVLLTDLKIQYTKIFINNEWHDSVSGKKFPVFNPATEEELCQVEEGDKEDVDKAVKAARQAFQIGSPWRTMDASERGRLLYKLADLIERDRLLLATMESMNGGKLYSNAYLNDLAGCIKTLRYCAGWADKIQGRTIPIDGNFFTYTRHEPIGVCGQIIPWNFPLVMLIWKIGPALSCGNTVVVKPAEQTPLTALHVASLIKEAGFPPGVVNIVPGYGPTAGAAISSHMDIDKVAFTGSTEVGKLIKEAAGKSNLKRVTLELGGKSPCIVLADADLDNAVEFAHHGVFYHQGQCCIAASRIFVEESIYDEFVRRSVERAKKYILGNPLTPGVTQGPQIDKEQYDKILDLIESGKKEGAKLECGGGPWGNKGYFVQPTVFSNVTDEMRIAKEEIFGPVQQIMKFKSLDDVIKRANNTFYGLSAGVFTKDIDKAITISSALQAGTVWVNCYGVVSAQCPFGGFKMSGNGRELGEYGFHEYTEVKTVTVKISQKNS
Assay: qHTS Assay for Inhibitors of Aldehyde Dehydrogenase 1 (ALDH1A1)
Conditions: Purified ALDH1A1, NADH fluorescence, propionaldehyde substrate; series mostly up to 75.3 µM
Potency is read from the fitted curve at half-maximal effect; tags tell the direction and shape of the fitted curve.

Potency, active:
O=C(OC(C(=O)NCc1ccc2c(c1)OCO2)c1ccc(Cl)cc1)c1ccco1 (configuration not stated) 14.1 µM
CCNc1ccc(C(=O)OCC(=O)N2c3ccccc3NC(=O)C2(C)C)cc1[N+](=O)[O-] 11.2 µM
O=C(Nc1cccc(-c2cnc3ccccc3n2)c1)c1ccco1 25.1 µM
O=C(O)/C(=C\c1ccc(Cl)c([N+](=O)[O-])c1)c1ccc(S(=O)(=O)N2CCCCC2)s1 0.501 µM
COc1cccc(-c2csc(N3CCN(C(=O)Nc4ccccc4Cl)CC3)n2)c1 22.4 µM
CCOC(=O)N/N=C/C=C/c1ccccc1[N+](=O)[O-] 10 µM
CCc1ccc(NC(=O)C2CC(=O)Nc3ncnn32)cc1 (configuration not stated) 25.1 µM
CC(=C1C(=O)c2ccccc2C1=O)N1CCN(CCN=CC2=C(O)CC(C)(C)CC2=O)CC1 14.1 µM
O=C(CSc1nnc(-c2ccc(Cl)cc2)n1Cc1ccco1)Nc1ccc2c(c1)OCCO2 5.01 µM
Cc1ccc(NCC(=O)c2ccc([N+](=O)[O-])cc2)cc1 7.94 µM
Cc1ccc(C(O)(COC(=O)C(C)C)COC(=O)C(C)C)c(O)c1 7.94 µM
COC(=O)C(CCSC)NC(=O)c1cc2c(n(-c3ccccc3)c1=O)CC(C)(C)CC2=O (configuration not stated) 28.2 µM

Potency, inconclusive:
Cc1ccc(N=Nc2c(O)c(S(=O)(=O)O)cc3cc(S(=O)(=O)O)ccc23)c(C)c1 5.01 µM [inhibitor, single point]
Cc1cc(C(=O)O)c(CSCc2cc(C(=O)O)oc2C)o1 39.8 µM [inhibitor, partial curve, poor fit]
CCOC(=O)c1c(NC(=O)C2CCN(S(=O)(=O)c3ccc(Cl)cc3)CC2)sc2c1CCCC2 25.1 µM [inhibitor, single point]
O=c1cc(-c2cccc(O)c2)oc2cc(O)ccc12 39.8 µM [inhibitor, single point]
Cc1cc(C)n(-c2nc(SCC(=O)Nc3nccs3)c3c4c(sc3n2)COC(C)(C)C4)n1 31.6 µM [inhibitor, single point]
c1ccc(CNc2oc(-c3ccccc3)nc2-c2cccc3ccccc23)cc1 39.8 µM [inhibitor, single point]
Cc1ccc(S(=O)(=O)c2nc(-c3ccc(F)cc3)oc2SCC(N)=O)cc1 39.8 µM [inhibitor, single point]
CCOC(=O)N1CCN(S(=O)(=O)c2cccc3nonc23)CC1 39.8 µM [inhibitor, single point]
CC(=NCc1ccco1)c1c(C(F)(F)F)[nH]n(-c2nc3ccccc3s2)c1=O 39.8 µM [inhibitor, single point]
Cc1ccc2nc(NC(=O)C3CCN(S(=O)(=O)c4cc([N+](=O)[O-])ccc4Cl)CC3)sc2c1 20 µM [inhibitor, single point]
CN(C)c1ncc2nc(-c3ccc(Cl)cc3)c(=O)n(Cc3cccs3)c2n1 3.98 µM [inhibitor, full curve]
Cc1ccccc1CNC(=O)CC1C(=O)NCCN1Cc1c(F)cccc1Cl (configuration not stated) 7.08 µM [inhibitor, partial curve]
CN1CCN(c2ccnc(-c3ccc(N(C)C)cc3)n2)CC1 25.1 µM [inhibitor, partial curve]
CCOC(=O)c1[nH]c2ccc(OC)cc2c1NC(=O)C(C)N1CCC2(CC1)OCCO2 (configuration not stated) 22.4 µM [inhibitor, partial curve]
Cc1ccn2c(NC3CCCC3)c(-c3ccccn3)nc2c1 28.2 µM [inhibitor, single point]
O=S(=O)(c1ccc(N2CCOCC2)nc1)N1CCOCC1 35.5 µM [inhibitor, single point]
O=c1cc(-c2ccccc2)nc2c(-c3ccccc3)c(C(F)(F)F)[nH]n12 35.5 µM [inhibitor, partial curve]
CSCCC(NC(=O)c1ccco1)C(=O)OC(C)C(=O)NC(=O)NC1CCCCC1 (configuration not stated) 39.8 µM [inhibitor, single point]
O=[N+]([O-])c1ccc(-c2cnc(NO)nc2)cc1 44.7 µM [inhibitor, single point]
Cc1cc(C)c(NC2=NCC(=O)N2C2CCCCC2)c(C)c1 39.8 µM [inhibitor, single point]
Nc1nc(-c2ccc3c(c2)CCCC3)cs1 22.4 µM [inhibitor, single point]
O=C(O)Cc1ccc(NC(=O)c2ccc(NC(=O)c3ccco3)cc2)cc1 28.2 µM [inhibitor, single point]
CCOc1cc(/C=C2/N=C(C)C(C(=O)OC)=C2O)ccc1O 39.8 µM [inhibitor, single point]
O=C(CCc1ccccc1)Nc1nnc(-c2ccccn2)o1 25.1 µM [inhibitor, single point]
c1cc2nc(C34CC5CC(CC(C5)C3)C4)[nH]c2cn1 39.8 µM [inhibitor, single point]
CC(=O)Nc1ccc(S(=O)(=O)NNC(=O)COc2cc(C)ccc2C(C)C)cc1 12.6 µM [inhibitor, partial curve, poor fit]
CC(=O)N1C=CN(C(C)=O)C(c2cn(C)c3ccccc23)C1c1cn(C)c2ccccc12 (configuration not stated) 44.7 µM [inhibitor, single point]
Cc1ccc(OCCOCCN2CCN(C)CC2)c([N+](=O)[O-])c1 22.4 µM [inhibitor, single point]
CN(C1CCCCC1)S(=O)(=O)c1ccc(NC(=O)c2ccc(Br)o2)cc1 20 µM [inhibitor, partial curve]
COc1cc2c3nnc(-c4ccccc4)c-3cn(Cc3ccc(F)cc3)c2cc1OC 28.2 µM [inhibitor, single point]
COc1ccc(NC(=O)C2CCCN2S(=O)(=O)c2ccc(F)cc2)cc1 (configuration not stated) 39.8 µM [inhibitor, single point]
O=c1oc2c(CN3CCOCC3)c(O)ccc2c2c1CCCC2 31.6 µM [inhibitor, partial curve]
CCOC(=O)Cn1nc(-c2ccccc2)c2cnc3ccc(CC)cc3c21 25.1 µM [inhibitor, single point]
CCCOc1ccc(-c2cnc(N)s2)cc1 39.8 µM [inhibitor, single point]
C/C(N)=C(/C#N)C(=O)CSc1nc2ccccc2c(=O)n1CCCOC(C)C 31.6 µM [inhibitor, single point]
Cc1cccc(-c2cc3nc4c(c(N5CCOCC5)n3n2)CCCC4)c1 28.2 µM [inhibitor, partial curve]
CC1CC(C)CN(C(=O)C(NS(=O)(=O)c2ccc(Br)s2)c2ccccc2)C1 (configuration not stated) 25.1 µM [inhibitor, single point]
CS(=O)(=O)N1CCC[C@@]2(CCN(c3ccccc3)C2)C1 25.1 µM [inhibitor, partial curve, poor fit]
CN1CCN(c2ccnc(-c3cccnc3)n2)CC1 39.8 µM [inhibitor, single point]
CCOC(=O)C1=C(N)n2c(s/c(=C\c3ccco3)c2=O)=C(C(=O)OC(C)C)C1c1ccco1 (configuration not stated) 17.8 µM [inhibitor, single point]

Potency, inactive:
Cn1cc(/C=C2\SC(=O)N(c3ccccc3)C2=O)c2ccccc21
CCOC(=O)c1n[nH]n(-c2cc(Cl)cc(Cl)c2)c1=O
CCOC(=O)c1c(NC(=S)Nc2ccc(C)cc2)sc2c1CCC2
COc1cccc(-n2c(C)c(C(C)=O)c(C(C)=O)c2C)c1
COCCn1c(SCC(=O)Nc2nnc(C)s2)nnc1-c1c[nH]c2ccccc12
NC(=O)c1cnn(-c2cc(Oc3ccccc3)ncn2)c1N
COc1cc(-c2nc(CN3CCN(c4ncccn4)CC3)c(C)o2)ccc1F
Cc1ccnc2nc(C(=O)OCCOc3ccc(Cl)cc3)nn12
CC(C)=CCCC1=CC[C@H](C(=O)O)[C@H](C(=O)O)C1
NC(=O)C1(NC(=O)[C@@H]2CC3(CC(c4cccc(NC(=O)[C@@H]5CCC(=O)N5)c4)=NO3)CN2C(=O)c2ccccc2)CC1 (some centres not stated)
COC(=O)C1=C(C)N(CC(C)C)C(=O)C1
CSc1nc2ccc(NC(=O)C3=NNC(=O)CC3)cc2s1
CCOC(=O)c1cn(CC)c2ccc(S(=O)(=O)N3CCC(C)CC3)cc2c1=O
COc1ccc([N+](=O)[O-])c2c(=O)ccoc12
Cc1cccc(CN2CCN(CC(=O)N3CCCC3)C2=O)c1
OC(CNCc1ccccn1)c1ccccc1 (configuration not stated)
Cc1nn(CC(=O)NC2C(=O)N3C(C(=O)O)=C(CSc4nnnn4C)CSC23)cc1Br (configuration not stated)
CC(C)(C)c1ccc(C(=O)CC(=O)c2cc(Cl)ccc2O)cc1
Cn1c(SC(C(=O)Nc2ccc(F)cc2)c2ccccc2)nc2ccccc21 (configuration not stated)
CCn1cc([N+](=O)[O-])c(C(=O)N2N=C(c3ccc(O)c(OC)c3)CC2c2ccccc2O)n1 (configuration not stated)

From PubChem BioAssay AID1030 (National Center for Advancing Translational Sciences (NCATS), 2008)
